{"source": "patent US20200347136A1", "about": "“CONSTRAINED CYCLIC PEPTIDES AS INHIBITORS OF THE CD2:CD58 PROTEIN-PROTEIN INTERACTION FOR TREATMENT OF DISEASES AND AUTOIMMUNE DISORDERS” (Board of Supervisors for the University of Louisiana System, priority 2019, published 2020)", "system": "A549 Red-FLuc lung tumors", "assay": "experimental metastasis model of lung cancer, A549 Red-FLuc cells", "conditions": "vs vehicle control"}
{"molecule": "CC[C@H](C)[C@@H]1NC(=O)[C@H](CCCNC(=N)N)NC(=O)C[C@@H](c2cccc3ccccc23)NC(=O)[C@@H]2CSSC[C@H](NC(=O)C[C@@H](c3cccc4ccccc34)NC(=O)[C@H](CCCNC(=N)N)NC(=O)[C@@H]3CCCN3C(=O)[C@@H]3CCCN3C1=O)C(=O)N[C@@H](Cc1ccccc1)C(=O)N1CCC[C@H]1C(=O)N[C@@H](CC(=O)O)C(=O)N[C@@H](CC(=O)O)C(=O)N[C@@H](Cc1ccccc1)C(=O)N2", "note": "[SFTI-G5, Cyclo(C(S-X)RIPPR(S-X)CFPDDF)]", "values": [{"measurement": "EGFR:HER2 and HER2:HER3 dimerization in lung tumor tissue (PLA)", "value": "reduction in red fluorescence"}]}
